Experimental data as given in PubChem BioAssay AID504339 (National Center for Advancing Translational Sciences (NCATS), 2011).
Out of some 390,000 compounds screened, about 17,000 (4.4%) were called active. The shares of active, inactive and inconclusive entries below differ from those in the screen. Calls follow the shape of the dose curve; as a rule, active = well fitted inhibition curve with a large enough effect; inconclusive = small, poorly fitted or top-dose-only effect; inactive = no such curve, though single readings can be large or run the other way. A potency beside an inconclusive call is a rough fit, not a confirmed value. Peptide text beside a SMILES is read from it.

Molecular target: Lysine-specific demethylase 4A (Homo sapiens) (UniProt O75164)
Assay: qHTS Assay for Inhibitors of JMJD2A-Tudor Domain; also: nearly all actives have a fitted effect of over 50% in size
Settings: AlphaScreen JMJD2A-Tudor / H3K4me3 peptide binding; activity change, negative = inhibition: at 114 µM (top of the series)
% is scaled to controls: 0 for no effect and ±100 for the full control effect; potency is read from the fitted curve at half-maximal effect; tags tell the direction and shape of the fitted curve.

Chain of UniProt O75164 (O75164 whole entry, looked up, the tested form may be a part): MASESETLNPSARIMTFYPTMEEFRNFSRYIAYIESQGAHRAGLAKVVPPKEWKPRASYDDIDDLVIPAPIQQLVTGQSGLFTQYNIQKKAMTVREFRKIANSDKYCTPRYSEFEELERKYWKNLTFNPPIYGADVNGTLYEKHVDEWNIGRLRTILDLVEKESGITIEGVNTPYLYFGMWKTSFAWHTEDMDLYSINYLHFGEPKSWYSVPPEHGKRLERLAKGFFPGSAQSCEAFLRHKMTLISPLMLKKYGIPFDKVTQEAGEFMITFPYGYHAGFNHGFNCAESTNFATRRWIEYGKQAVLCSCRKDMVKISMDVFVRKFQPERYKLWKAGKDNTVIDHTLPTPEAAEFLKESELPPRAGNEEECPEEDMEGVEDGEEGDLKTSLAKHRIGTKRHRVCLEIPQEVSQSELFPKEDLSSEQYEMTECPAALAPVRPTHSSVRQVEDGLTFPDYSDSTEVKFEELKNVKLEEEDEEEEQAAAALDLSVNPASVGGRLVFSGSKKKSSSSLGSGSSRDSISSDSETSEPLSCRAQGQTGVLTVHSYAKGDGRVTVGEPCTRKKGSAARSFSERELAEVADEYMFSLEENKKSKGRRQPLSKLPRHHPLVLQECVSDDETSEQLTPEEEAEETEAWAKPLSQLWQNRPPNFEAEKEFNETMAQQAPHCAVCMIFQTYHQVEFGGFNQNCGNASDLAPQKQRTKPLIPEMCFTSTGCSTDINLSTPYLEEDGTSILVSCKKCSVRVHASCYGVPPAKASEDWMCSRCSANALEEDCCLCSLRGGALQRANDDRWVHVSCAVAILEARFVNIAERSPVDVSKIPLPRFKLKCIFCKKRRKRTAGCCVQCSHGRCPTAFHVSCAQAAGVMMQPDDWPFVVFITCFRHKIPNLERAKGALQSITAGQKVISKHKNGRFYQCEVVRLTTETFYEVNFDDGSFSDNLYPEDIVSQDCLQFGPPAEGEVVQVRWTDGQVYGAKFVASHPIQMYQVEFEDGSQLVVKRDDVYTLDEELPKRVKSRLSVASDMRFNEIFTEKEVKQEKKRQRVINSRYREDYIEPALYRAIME

| SMILES | Potency | activity change, negative = inhibition |
| --- | --- | --- |
| CCOC(=O)C(C)N1C(=O)S/C(=C/c2cc(C)n(-c3ccncc3)c2C)C1=O (stereo not given) | inconclusive: 56.2 µM [inhibitor, partial curve] |  |
| COC(=O)C(CC(C)C)NC(=O)C(N)Cc1ccccc1 (stereo not drawn) (H-Phe-Leu-OMe; configuration not given here) | inconclusive: 14.1 µM [inhibitor, single point] |  |
| O=C1CCN(C(=O)Nc2cccc(Cl)c2)N1 | active: 20 µM |  |
| Nc1ccc2nc(-c3ccc(Cl)cc3)[nH]c2c1 | inconclusive: 89.1 µM [inhibitor, partial curve] |  |
| CCOC(=O)N1CCc2c(sc(NCc3ccc(N(C)C)cc3)c2C(=O)Nc2ccccc2OCC)C1 | active: 12.6 µM |  |
| COc1ccc(CCN(C)C(=O)CSc2nnc(C3CC3)n2N)cc1OC |  | inactive: -1.38% |
| COCC(C)NCc1cccc2ccccc12 (stereo not given) | active: 31.6 µM |  |
| C=CCN1C(=O)C2C3C=CC(C2C1=O)C1C2C(=O)N(CC=C)C(=O)C2C31 (stereo not given) |  | inactive: -1.67% |
| CN1C(=O)C2(c3ccccc31)c1c(oc3ccccc3c1=O)C(=O)N2CCO (stereo not given) |  | inactive: -4.03% |
| COc1ccc(C(=O)NC(=S)N2CCNC(=O)C2)cc1Br | active: 35.5 µM |  |
| Cc1ccc(NC(=O)CSc2nnc(N)s2)c([N+](=O)[O-])c1 | inconclusive: 35.5 µM [inhibitor, partial curve] |  |
| O=S(=O)(CCc1ccccc1)CS(=O)(=O)CCc1ccccc1 |  | inactive: -3.45% |
| Cc1[nH]c2ccccc2c1C1(O)C(=O)N(Cc2ccccc2)c2ccc(Br)cc21 (stereo not given) | inconclusive: 39.8 µM [inhibitor, partial curve] |  |
| O=C(O)CN1C(=O)/C(=C\c2cc(Br)ccc2OCc2ccc(Cl)cc2)SC1=S | active: 56.2 µM |  |
| COc1cc(/C=C2\COC/C(=C\c3cc(OC)c(OC)c(OC)c3)C2=O)cc(OC)c1OC | inconclusive: 31.6 µM [inhibitor, partial curve] |  |
| Cc1ccc(NC(=S)NNC(=S)NC2CCCCC2)cc1 | inconclusive: 3.55 µM [inhibitor, full curve] |  |
| COc1ccc(C(=O)c2cc3c(cc2[N+](=O)[O-])OCCO3)cc1 | inconclusive: 20 µM [inhibitor, full curve, poor fit] |  |
| Cc1[nH]n(-c2ccccc2)c(=O)c1N=Nc1ccc(Cl)cc1 | inconclusive: 22.4 µM [inhibitor, partial curve, poor fit] |  |
| CC(NC(=O)CN1C(=O)NC(C)(c2cccc3ccccc23)C1=O)c1ccccc1 (stereo not given) |  | inactive: -8.1% |
| C#CCOCCOCCOCCNc1nc(N2CCN(C(=O)[C@H]([C@@H](C)CC)n3cc([C@@H](N)Cc4ccc(O)cc4)nn3)CC2)nc(N2CCN(C(=O)[C@H](Cc3ccc(O)cc3)n3cc([C@@H](N)CC(C)C)nn3)CC2)n1 | active: 14.1 µM |  |
| Cc1ccc(-n2ncc(C(=O)NCCN3CCc4ccccc4C3)c2C2CCN(C(=O)OC(C)(C)C)CC2)c(C)c1 | inconclusive: 63.1 µM [inhibitor, partial curve] |  |
| CCOc1ccc(NC(=O)COc2ccccc2)c([N+](=O)[O-])c1 | inconclusive: 22.4 µM [inhibitor, full curve] |  |
| CCOC(=O)C1(Cc2cccc(OC)c2)CCN(Cc2cnc(C)s2)CC1 |  | inactive: -9.97% |

| SMILES | Potency | activity change, negative = inhibition |
| --- | --- | --- |
| O=C(NCC1CCOCC1)C1CCC(=O)N(Cc2cccc(C(F)(F)F)c2)C1 (stereo not given) |  | inactive: -16.2% |
| CC(=O)[C@@H]1[C@@H](C(=O)c2ccc(C)cc2)[C@]2(C(=O)Nc3ccccc32)[C@H]2C=Cc3cc(F)ccc3N12 | inconclusive: 50.1 µM [inhibitor, partial curve] |  |
| Cc1cc(C)nc(NC(=NCCc2c[nH]c3ccccc23)NC(=O)C(C)(C)C)n1 | inconclusive: 4.47 µM [inhibitor, full curve, poor fit] |  |
| Cc1ccccc1OCC(O)CN1CCN(CC(O)COc2ccccc2C)C(C)C1 (stereo not given) | active: 2 µM |  |
| CN1CCN(C(=S)C(=O)Nc2ccc(Br)cc2)CC1 | active: 89.1 µM |  |
| Cc1cc(C)c(S(=O)(=O)ON2C(=O)c3ccccc3C2=O)cc1C | active: 56.2 µM |  |
| CC(C)COP(=O)(c1ccc(N(C)C)cc1)C(O)c1ccc(N(C)C)cc1 (stereo not given) | inconclusive: 50.1 µM [inhibitor, partial curve] |  |
| Cc1c(/C=C2\SC(=Nc3cccc(C(=O)O)c3)NC2=O)c2ccccc2n1C |  | inactive: -17.6% [at 11.4 µM] |
| COCC(=O)N1CCC(Oc2ccc(C(=O)N3C[C@H]4CC[C@H]3C4)cc2)CC1 |  | inactive: -1.38% |
| COc1ccc(-c2nnc(SCC(=O)NC3CCCc4ccccc43)n2N)cc1 (stereo not given) | inconclusive: 70.8 µM [inhibitor, single point] |  |
| O=C(c1ccco1)N1CCN(S(=O)(=O)c2cccc([N+](=O)[O-])c2)CC1 |  | inactive: 3.46% |
| FC(F)(F)c1ccccc1CNCc1ccncc1 | inconclusive: 89.1 µM [inhibitor, single point] |  |
| c1cncc(Nc2c3ccccc3nc3ccccc23)c1 |  | inactive: -33.6% |
| Cc1cccc(Nc2nc(-c3ccc(O)c(O)c3)cs2)n1 | inconclusive: 56.2 µM [inhibitor, partial curve] |  |
| COc1ccc(OC)c(NC(=O)C(Cc2ccccc2)NS(=O)(=O)c2ccc3c(c2)CCC(=O)N3)c1 (stereo not given) |  | inactive: -11.8% |
| Cn1cccc1/C=C1\SC(=S)N(NC(=O)c2cccc(Cl)c2)C1=O | active: 28.2 µM |  |
| Cc1ccc(NN=Nc2nc3c([nH]2)c(=O)n(C)c(=O)n3C)cc1 | active: 14.1 µM |  |
| Cc1ccc(-n2nc(-c3ccc(OC(F)(F)F)cc3)cc2N)cc1C | inconclusive: 25.1 µM [inhibitor, full curve] |  |
| CN(CC(=O)Nc1ccc(OC(F)(F)F)cc1)C(=O)Cn1c(=O)cnc2ccccc21 |  | inactive: -11.4% |
| CCOc1cc(N2CCOCC2)c(OCC)cc1NC(=O)CSc1ncn[nH]1 |  | inactive: -7.22% |
| Cc1ccc(-c2nnc(Nc3cccc(Br)c3)c3ccccc23)cc1S(=O)(=O)N1CCN(C)CC1 | inconclusive: 44.7 µM [inhibitor, partial curve] |  |
| CC(C)(C)c1nc(NCCO)c2nnn(Cc3ccccc3)c2n1 | inconclusive: 89.1 µM [inhibitor, single point] |  |
